Screen size: about 310,000 compounds; about 14,000 (4.5%) showed an effect of 50% or more. Effects have a minus sign here. The list shows a part of the results.
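Further: peak tail current of the secondary pulse compared with the same well before compound.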

The target in the assay is human ether-à-go-go-related gene (hERG) potassium channel (human, UniProt Q12809). Put plainly: primary screen, population patch clamp on CHO cells stably expressing hERG.
human ether-à-go-go-related gene (hERG) potassium channel, sequence (Q12809 whole entry, looked up): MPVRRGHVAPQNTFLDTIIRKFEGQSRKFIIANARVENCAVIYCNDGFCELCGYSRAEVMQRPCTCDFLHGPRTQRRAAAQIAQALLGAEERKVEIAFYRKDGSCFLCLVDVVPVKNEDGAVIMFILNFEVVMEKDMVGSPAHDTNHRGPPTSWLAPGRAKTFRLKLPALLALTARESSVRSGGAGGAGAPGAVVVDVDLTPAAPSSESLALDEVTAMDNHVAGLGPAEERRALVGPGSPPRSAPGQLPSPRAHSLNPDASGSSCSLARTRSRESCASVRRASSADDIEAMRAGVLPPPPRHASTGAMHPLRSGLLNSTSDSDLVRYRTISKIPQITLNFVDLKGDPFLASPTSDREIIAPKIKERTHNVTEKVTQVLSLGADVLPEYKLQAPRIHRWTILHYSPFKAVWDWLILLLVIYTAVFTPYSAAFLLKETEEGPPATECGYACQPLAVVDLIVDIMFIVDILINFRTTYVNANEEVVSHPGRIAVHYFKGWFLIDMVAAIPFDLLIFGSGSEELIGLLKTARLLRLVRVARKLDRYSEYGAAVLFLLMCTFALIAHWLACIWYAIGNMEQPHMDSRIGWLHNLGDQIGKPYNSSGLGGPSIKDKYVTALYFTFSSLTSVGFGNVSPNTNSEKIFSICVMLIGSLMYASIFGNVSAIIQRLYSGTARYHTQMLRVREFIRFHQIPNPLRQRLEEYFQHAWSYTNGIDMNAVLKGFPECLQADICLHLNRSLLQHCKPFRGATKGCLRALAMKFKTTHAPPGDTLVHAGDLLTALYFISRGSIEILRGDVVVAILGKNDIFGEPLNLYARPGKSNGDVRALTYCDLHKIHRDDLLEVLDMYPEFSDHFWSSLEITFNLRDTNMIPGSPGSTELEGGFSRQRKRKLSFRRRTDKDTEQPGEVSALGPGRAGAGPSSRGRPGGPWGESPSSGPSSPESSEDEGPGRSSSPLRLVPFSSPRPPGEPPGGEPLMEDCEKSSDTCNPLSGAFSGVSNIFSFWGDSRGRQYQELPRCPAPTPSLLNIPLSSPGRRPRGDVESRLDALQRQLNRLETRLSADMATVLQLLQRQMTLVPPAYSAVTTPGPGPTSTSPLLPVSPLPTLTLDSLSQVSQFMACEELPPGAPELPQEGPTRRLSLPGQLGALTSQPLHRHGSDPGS
As for `O=C(CNC(=O)c1ccc(Br)o1)Nc1cccc(S(=O)(=O)N2CCCC2)c1`, the “hERG current change (%, negative = inhibition) at 10uM” value was 5.32%. The value for `NS(=O)(=O)c1ccc(CCNC(=O)C(=O)NCC2OCCN2S(=O)(=O)c2ccc(Cl)cc2)cc1` (stereo not shown) was 7.23%.

Turning to `CCOC(=O)c1cnn(-c2ccccc2)c1-n1cccc1C(=O)C(=O)Nc1ccccc1`, the “hERG current change (%, negative = inhibition) at 10uM” value came to 4.93%. In the case of `COc1ccc(C(=O)NC(=S)Nc2ccc3oc(=O)ccc3c2)cc1OC`, the “hERG current change (%, negative = inhibition) at 10uM” value was 13.5%. `CCCCCCCCCCCCC(NC(C)=O)(C(=O)OCC)C(=O)OCC`: the “hERG current change (%, negative = inhibition) at 10uM” value was 12.7%. On to `COc1cccc(C(=O)N2CCN(S(=O)(=O)Cc3ccccc3)CC2)c1`, for which the “hERG current change (%, negative = inhibition) at 10uM” value is listed as -3.18%. The value for `CCCCn1c(O)c(C(C)=NCc2ccco2)c(=O)[nH]c1=O` was -7.3%; that for `C=CC1CN2CCC1CC2c1[nH]c2ccccc2c1CCO` (stereo not shown) was -32.2%. The figure for `COc1ccc(NC(=O)[C@@H](NC(=O)N2C[C@H]3C[C@@H](C2)c2cccc(=O)n2C3)C(C)C)cc1` is 10.9%; for `CN(C)c1cc[n+](CC(=O)Nc2cc(C(F)(F)F)ccc2Cl)cc1.[Cl-]` it is 7.63%. As for `O=C(COc1ccccc1[N+](=O)[O-])OCC(=O)N1CCC(Cc2ccccc2)CC1`, the “hERG current change (%, negative = inhibition) at 10uM” value was determined as 6.08%. The figure for `N#Cc1c(N2CCSCC2)nsc1-c1ccccc1Cl` is 4.75%; for `CCN(C(=O)c1cc(S(=O)(=O)N2CCCCC2)c[nH]1)c1ccc(OC)cc1` it is 0.475%; for `NNC(=O)c1nc(Cl)c(Cl)c(N)c1Cl` it is 8.65%. The figure for `O=C1CCC/C(=N\NC(=O)c2ccc(CSc3cccc4cccnc34)cc2)C1` is 12.6%; for `CC(C)(CO)Nc1ccc([N+](=O)[O-])cc1[N+](=O)[O-]` it is -8.26%. The value for `Cn1c(Cn2nnc3ccccc32)nnc1SCC(=O)N1c2ccccc2Sc2ccccc21` was -22.1%. Turning to `CCNc1ccc(C2(O)C(=O)c3ccccc3C2=O)cc1`, the “hERG current change (%, negative = inhibition) at 10uM” value came out at 12.6%. The figure for `COc1nc(OC)nc(Oc2ccc([N+](=O)[O-])cc2Cl)n1` is 12.3%; for `O=C(c1cccc(F)c1)N(Cc1nc2ccccc2c(=O)[nH]1)C1CCCC1` it is -30.4%.

`CC(C)(C)C(=O)COc1ccccc1[N+](=O)[O-]`: the “hERG current change (%, negative = inhibition) at 10uM” value is on record as -0.00642%.

With `O=C1Nc2ccccc2/C1=C\c1cccn1-c1ccc(OC(F)(F)F)cc1`, the “hERG current change (%, negative = inhibition) at 10uM” value was 5.54%. `O=c1[nH]c(=S)n(Cc2ccc(F)cc2)c(O)c1C=NCc1ccc2c(c1)OCO2`: the “hERG current change (%, negative = inhibition) at 10uM” value is 20.8%.

As to `Cc1nnc(SCC(=O)N2CCc3ccccc3C2)n1-c1ccccc1`, the “hERG current change (%, negative = inhibition) at 10uM” value was -23.6%. Turning to `CCC(C)(C)NC(=O)C(c1ccc(C)cc1)N(CC1CCCO1)C(=O)CNC(=O)c1cccs1` (stereo not shown), the “hERG current change (%, negative = inhibition) at 10uM” value is -4.98%. On to `CCCn1c(SCC(=O)NC2CCCCC2)nnc1-c1ccco1`, for which the “hERG current change (%, negative = inhibition) at 10uM” value is reported as -20.3%. The figure for `Cn1c(SCC(=O)NCCc2ccc(S(N)(=O)=O)cc2)nc2ccccc2c1=O` is 3.46%. As for `COc1cccc(CSc2nnc(CSc3nc4nc(C)cc(C)n4n3)s2)c1`, the “hERG current change (%, negative = inhibition) at 10uM” value is listed as -54.4%.

With `Cc1ccc(C(=O)NNC(=O)c2csc(N3CCOCC3)n2)s1`, the “hERG current change (%, negative = inhibition) at 10uM” value is given as -6.58%. `C[C@H]1NC(=O)[C@@]2(C)[C@@H](c3ccccc3)[C@H]3COc4ccccc4[C@H]3N2C1=O`: the “hERG current change (%, negative = inhibition) at 10uM” value is 4.02%.

On to `O=c1[nH]c(=O)n(-c2cccc3ccccc23)c(O)c1/C=N/N1CCCCC1c1cccnc1` (stereo not shown), for which the “hERG current change (%, negative = inhibition) at 10uM” value is listed as 12.2%. The value for `O=C(COC(=O)c1ccc(O)cc1)Nc1cc(S(=O)(=O)N2CCOCC2)ccc1Cl` was -21%.

As to `O=c1[nH]c(-c2ccccc2O)nc2c1CCCC2`, the “hERG current change (%, negative = inhibition) at 10uM” value is 12.8%.

Regarding `CCn1c(SCC(=O)Nc2cc(C(C)(C)C)nn2-c2ccccc2)nnc1-c1cccs1`, the “hERG current change (%, negative = inhibition) at 10uM” value is -47.7%. The figure for `Cn1c(CCNC(=O)C2CCCCC2)nc2cc([N+](=O)[O-])ccc21` is -45.3%; for `O=C(c1cc(-c2cccs2)nc2ccccc12)N1CCN(S(=O)(=O)c2ccccc2)CC1` it is -5.65%. As to `COc1ccc(CC(=O)OCC(=O)NCc2ccc(Cl)cc2)cc1`, the “hERG current change (%, negative = inhibition) at 10uM” value was 15.5%. As for `CC1CCCCN1S(=O)(=O)c1ccccc1[N+](=O)[O-]` (stereo not shown), the “hERG current change (%, negative = inhibition) at 10uM” value is listed as 6.98%. Regarding `COc1ccc(CCNC(=O)CNC(=O)c2nn(-c3ccc(OC)c(OC)c3)c(=O)c3ccccc23)cc1OC`, the “hERG current change (%, negative = inhibition) at 10uM” value is reported as 18.5%. The figure for `CC(C)[C@H](NC(=O)N1c2ccccc2NC(=O)[C@@H]1C(C)C)C(=O)N[C@@H](Cc1ccccc1)C(=O)O` is 11.8%; for `COc1ccc(CCN2CC(C(=O)NCc3nc4ccccc4n3C)CCC2=O)cc1` (stereo not shown) it is -15.6%.

On to `COCCCNC1CS(=O)(=O)CC1O.Cl` (stereo not shown), for which the “hERG current change (%, negative = inhibition) at 10uM” value amounted to 23.4%. The value for `COc1ccc(-c2nn(-c3ccccc3)cc2/C=C\C(=O)Nc2ccc(C(=O)O)cc2)cc1` was 21%.

The values are drawn from PMC4336329 (PLoS ONE, 2015).
